Measured values as given in PubChem BioAssay AID624296 (National Center for Advancing Translational Sciences (NCATS), 2012).
Screen size: about 350,000 compounds; about 9,900 (2.8%) were called active. Inconclusive results, whose numbers are uncertain, are shown with a selection of clear calls. The call rests on the fitted dose curve; in most records, active means well fitted activation curve with a large enough effect; inconclusive means small, poorly fitted or top-dose-only effect; inactive means no such curve, though single readings can be large or run the other way. Potencies of inconclusive entries are left out as doubtful fits.

Test: A quantitative high throughput screen for small molecules that induce DNA re-replication in MCF 10a normal breast cells. Further: nearly all actives have a fitted effect of over 50% in size. On activity, positive = re-replication: % of control where 0% means no effect.
Conditions: MCF 10A DNA re-replication, Hoechst nuclear intensity, 48 h; activity, positive = re-replication: at 46.1 µM (top of the series)
Potency means the concentration at half of the fitted maximal effect; tags describe the fitted curve by direction and shape.

Structure (SMILES) | activity, positive = re-replication | Potency
O=C(Nc1ncc(Cc2ccccc2Cl)s1)C1CCCO1 (stereo unspecified) | inactive: 1.17% | 
CCOC(=O)N1CCN(c2c(NCc3ccc(F)cc3)c(=O)c2=O)CC1 |  | inconclusive [activator, full curve]
O=c1oc2ccccc2c(NC(c2ccccc2)c2ccccc2)c1[N+](=O)[O-] |  | inconclusive [activator, partial curve, poor fit]
COc1ccccc1C(=O)Nc1ccc(C(=O)N2CCCCC2)cc1 |  | inconclusive [activator, single point]
COc1ccc(C2=NOC(C)(c3nnc(-c4ccc(Cl)cc4)o3)C2)cc1 (stereo unspecified) |  | inconclusive [activator, single point]
COc1cc2c(C#N)c(N3CCOCC3)nc(N)c2c(N)n1 |  | inconclusive [activator, full curve, poor fit]
CCN1C(=O)C(CC(=O)Nc2ccc(OC)cc2)N(Cc2ccc3c(c2)OCO3)C1=S (stereo unspecified) |  | inconclusive [activator, full curve]
O=C(Nc1ccc(Cl)c(S(=O)(=O)N2CCOCC2)c1)c1ccc(Cl)nc1 |  | inconclusive [activator, single point]
Cc1cccc(N=C2NC(=O)/C(=C/C=C/c3ccco3)S2)c1C |  | inconclusive [activator, single point]
C=CCNC(=O)NC(=O)CSc1nc2cc([N+](=O)[O-])ccc2n1-c1cccc(C(F)(F)F)c1 |  | inconclusive [activator, single point]
CN(C)/C=C1/C=C(c2ccccc2)OC1=O |  | active: 18.4 µM
O=C(COC(=O)c1cc(Br)ccc1O)c1ccc(F)cc1 |  | inconclusive [activator, partial curve, poor fit]
O=C(CSc1nnnn1-c1ccc(O)cc1)NC1CCCCC1 |  | inconclusive [activator, single point]
COCCn1nnnc1C(c1ccc(C)cc1)N1CCN(Cc2ccc3c(c2)OCO3)CC1 (stereo unspecified) | inactive: -10.5% | 
COc1cc(SC)ccc1C(=O)OCC(=O)NCCC1=CCCCC1 | inactive: 1.73% | 
CC(C)C(=O)Nc1ccc(O)c(-c2csc(N)n2)c1 |  | inconclusive [activator, single point]
O=C(Nc1ccc(-c2nc3ccccc3[nH]2)cc1)c1ccccc1NS(=O)(=O)c1ccc(F)cc1 |  | active: 18.4 µM
COc1cc(/C=N/NC(=O)c2ccc(CN(C)S(=O)(=O)c3ccc(C)cc3)cc2)ccc1O |  | inconclusive [activator, partial curve, poor fit]
COc1ccc(C(=O)NCCCN2CCOCC2)cc1Br |  | inconclusive [activator, full curve, poor fit]
CSc1ccc(/C=C/c2cc(=O)c3ccccc3[nH]2)cc1 |  | inconclusive [activator, single point]
COc1ccc(OC)c(-n2c(=O)c3ccccc3c3ccccc3c2=O)c1 |  | inconclusive [activator, partial curve, poor fit]
O=C(CN1CCC(c2nc3ccccc3s2)CC1)N1CCCCC1 | inactive: 12% | 

Structure (SMILES) | activity, positive = re-replication | Potency
Cc1ccc(O)c(NC(=O)c2cc(-c3ccccc3Cl)on2)c1 |  | inconclusive [activator, partial curve, poor fit]
NS(=O)(=O)c1cnccc1NCCc1ccccc1 |  | inconclusive [activator, partial curve, poor fit]
CCOC(=O)Nc1ccc2c(c1)N(C(=O)N1CCN(C)CC1)c1ccccc1CC2 | inactive: -2.61% | 
CCCn1c(NC(=O)c2ccc(Br)cc2)nc2ccccc21 | inactive: -5.27% | 
CC1=NN(C(=O)COc2ccc(C)c(C)c2)C(O)(c2ccc(Cl)cc2)C1 (stereo unspecified) |  | inconclusive [activator, full curve, poor fit]
Cc1cc2nc(SCCOC(=O)Nc3ccccc3)nc(C)c2cc1C | inactive: 7.75% | 
Cc1cccc2cc3c(N)c(C(=O)N4CCOCC4)sc3nc12 |  | active: 4.11 µM
Cc1ccc(NC(=O)c2c(-c3c(F)cccc3Cl)noc2C)cc1F |  | inconclusive [activator, partial curve, poor fit]
O=C(CCc1nc2ccccc2c(=O)[nH]1)Nc1nnc(SCc2ccccc2F)s1 | inactive: 10.5% | 
CCOC(=O)C1=C(C)NC(C)=C(C(=O)OCC)C1C(=O)OCC(=O)NCCc1ccccc1 |  | inconclusive [activator, partial curve, poor fit]
COCCCNC(=S)N1CCC(C(=O)c2ccc(Cl)cc2)CC1 |  | inconclusive [activator, partial curve, poor fit]
CCC1(C)Cc2ccccc2-c2nc(NCCO)n(-c3ccc(C)cc3)c(=O)c21 (stereo unspecified) |  | inconclusive [activator, partial curve, poor fit]
Cc1ccc(S(=O)(=O)N(C)C)cc1NC(=O)COC(=O)/C=C/c1ccc2ccccc2n1 |  | inconclusive [activator, single point]
CC(c1ccccc1)N1CC(C(=O)N2CCN(Cc3ccc(C#N)cc3)CC2)CC1=O (stereo unspecified) |  | inconclusive [activator, partial curve, poor fit]
COc1cccc(/C=C2\SC(=S)N(CCC(=O)N3CCCCC3)C2=O)c1 |  | active: 10.3 µM
Cc1cc(Cl)nc(-c2ccccc2O)n1 |  | inconclusive [activator, full curve, poor fit]
O=[N+]([O-])c1cc(-c2nnc(Nc3ccccc3)c3ccccc23)ccc1N1CCOCC1 |  | inconclusive [activator, partial curve, poor fit]
CCOC(=O)N1CCN(S(=O)(=O)c2ccc(C(=O)N(CCN(CC)CC)c3nc4ccc(C)cc4s3)cc2)CC1 |  | inconclusive [activator, single point]
Cc1ccccc1-c1cc(C(=O)NCc2ccco2)n(CC2CC(c3cccnc3)=NO2)n1 (stereo unspecified) |  | inconclusive [activator, single point]
O=C(Nc1ccc(OC(F)(F)F)cc1)C1CCCCN1S(=O)(=O)c1ccccc1 (stereo unspecified) |  | inconclusive [activator, partial curve, poor fit]
COc1c(C)cc(Br)cc1C(=O)Nc1cccc(-c2nc3ncccc3o2)c1 |  | inconclusive [activator, single point]
COC(=O)c1ccc(/C=N/Nc2nc(-c3ccc(C)cc3)cs2)cc1 |  | inconclusive [activator, partial curve, poor fit]

Structure (SMILES) | activity, positive = re-replication | Potency
CC(C)(C)n1nnnc1C(c1cccs1)N(Cc1ccccc1)Cc1ccco1 (stereo unspecified) |  | inconclusive [activator, single point]
CCCCC#Cc1cncc(C(=O)N/N=C/c2cccc(OC)c2)c1 |  | inconclusive [activator, partial curve, poor fit]
C#CCN1C(=O)C(O)(CC(=O)c2cc(OC)ccc2OC)c2ccccc21 (stereo unspecified) |  | inconclusive [activator, single point]
CC(C)CNC(C)C(=O)Nc1ccc(S(N)(=O)=O)cc1 (stereo unspecified) |  | inconclusive [activator, single point]
O=C(CSc1ncnc2sc(-c3ccccc3)cc12)NC1CCS(=O)(=O)C1 (stereo unspecified) | inactive: -3.86% | 
Cc1c(/C=N\NC(=O)c2cc3ccccc3o2)c2ccccc2n1C |  | active: 6.51 µM
CC(O)Cc1cn([C@@H](CCCCNC(=O)OC(C)(C)C)C(=O)N2CCN(C(=O)OC(C)(C)C)CC2)nn1 (stereo partly specified) | inactive: -2% | 
CCCn1c(/N=C/c2cc(OC)ccc2O)nc2ccccc21 |  | inconclusive [activator, single point]
COc1ccc2c(c1)C(=O)N1[C@H]3c4cc(C)ccc4OC[C@@H]3[C@H](c3ccccc3)[C@]1(C)C(=O)N2 |  | active: 14.6 µM
CC(C)c1ccc(NC2CCCN(C(=O)c3ccccc3-c3ncc[nH]3)C2)cc1 (stereo unspecified) |  | inconclusive [activator, single point]
CC(C)N(C(=O)[C@H]1C[C@H](CC(=O)NCCC2=CCCCC2)C(=O)N2CCc3c([nH]c4ccc(Cl)cc34)[C@]12C)C(C)C |  | inconclusive [activator, full curve, poor fit]
COc1ccc(C(=O)Nc2ccc(Cl)cn2)cc1Cl |  | active: 18.4 µM
Cc1cc(C)cc(Nc2c3c(nc4ncnn24)CCC3)c1 |  | inconclusive [activator, single point]
c1csc(-c2nnc(Cc3cccc4ccccc34)o2)c1 | inactive: 13.3% | 
COC(=O)c1sc2nc3c(c(-c4cccs4)c2c1N)CCCC3 |  | active: 9.2 µM
CC(=O)C(=Nc1cccc(Cl)c1)NNc1ccccc1C |  | inconclusive [activator, single point]
C=CCSc1nnc(NC(=O)C23CC4CC(CC(NC(C)=O)(C4)C2)C3)s1 | inactive: -3.65% | 
O=C(NCc1cccnc1)/C(=C\c1ccc(-c2ccc(Br)cc2)o1)S(=O)(=O)c1ccccc1 |  | active: 7.31 µM
O=C1NC(=O)C(=Cc2ccc(Cl)cc2Cl)S1 |  | inconclusive [activator, single point]
CCC(=O)[C@@]1(C)[C@H](C)C[C@@H]2[C@@H]3CCC4=CC(=O)C=C[C@@]4(C)[C@H]3[C@H](O)C[C@]21C | inactive: 4.97% [at 20.6 µM] | 
Cn1cccc1C(=O)OCC(=O)NCCc1ccccc1 | inactive: -4.88% | 
COc1cccc(/C=N/N2CCN(c3ccc(Cl)cc3)CC2)c1OC |  | inconclusive [activator, full curve, poor fit]
